# Hit rate of the full screen: of about 43,000 compounds, about 200 (0.47%) were called active. Another 12% or so got no clear call; they are omitted. Calls follow the shape of the dose curve; as a rule, active = well fitted cell-killing curve with a large enough effect; inconclusive = small, poorly fitted or top-dose-only effect, or effect the other way; inactive = flat fitted curve, though single readings scatter. The list shows a part of the results.
# Assay: Cell viability qHTS assay in S16 Pmp22-F2sN cells; also: nearly all actives have a fitted effect of over 65% in size
# Conditions: S16 Pmp22-F2sN Schwann cells viability, CellTiter-Glo, 24 h; series mostly up to 57.5 µM; activity change, negative = cytotoxicity: at the top concentration
# Outline: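 Used to flag compounds lowering reporter output through toxicity, this quantitative HTS measures ATP-based CellTiter-Glo luminescence in S16 Pmp22-F2sN Schwann cells after 24 h compound exposure at 37C.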
# % is scaled to controls: 0 for no effect and ±100 for the full control effect.
row,SMILES,"activity change, negative = cytotoxicity"
1,COc1cc(OC)cc(-n2c(=O)c3sccc3n(Cc3c(C)cc(C)cc3C)c2=O)c1,inactive: 0.924%
2,Cc1ccc(NC(=O)c2cc(S(=O)(=O)N3CCc4ccccc43)ccc2F)cc1Cl,inactive: 12.4%
3,COc1ccc(-c2cc(C(F)(F)F)nc(SCC(=O)NCCc3ccccc3)n2)cc1OC,inactive: -18.3%
4,CCc1sc(Nc2cccc(C)c2C)nc1-c1cc2cccc(OC)c2oc1=O,inactive: 28.2%
5,CN1C(=O)Cc2cc(S(=O)(=O)CCC(=O)Nc3ccc(F)c(Cl)c3)ccc21,inactive: -29.9%
6,O=C(Nc1cc(F)ccc1F)N1CCC(CN2CCCC2)CC1,inactive: 14.7%
7,Cc1ccc2c(=O)c(C(=O)c3cccc(Cl)c3)cn(CC(=O)Nc3ccc4c(c3)OCCO4)c2n1,inactive: -5.03%
8,Cn1cc(S(=O)(=O)c2cccc(Cl)c2)c(=O)c2cc(F)c(N3CCN(c4ccccc4)CC3)cc21,inactive: 4%
9,O=C(CSc1nnc(NC(=O)Nc2ccccc2)s1)Nc1cccc(F)c1,inactive: 7.03%
10,COc1ccc(CCCc2nnc(SCC(=O)Nc3ccc(OC)cc3)o2)cc1,inactive: 2.59%
11,COc1cc(C2c3c(-c4cc(C)ccc4O)n[nH]c3C(=O)N2CCCO)ccc1OCCC(C)C (stereo not drawn),inactive: 9.36%
12,CCc1ccccc1Nc1cc(C(=O)NC(C)c2ccccc2)c2ccccc2n1 (stereo not drawn),inactive: -23.6%
13,CCCc1nn2c(=O)cc(COC(=O)c3ccccc3NC(=O)c3ccc(Cl)cc3)nc2s1,inactive: -4.65%
14,CCOC(=O)c1ccccc1NC(=O)N1CCC(CN2CCCCC2)CC1,inactive: 3.71%
15,CCOc1ccc(NC(=O)CN2CCCN(Cc3cc(C)ccc3C)S2(=O)=O)cc1,inactive: 2.19%
16,Cc1ccc(NC(=O)C(C)Sc2nc(=O)cc(N)n2-c2ccccc2)cc1 (stereo not drawn),inactive: -18.2%
17,CCCC(=O)Nc1ccc(-c2nc3ncccc3o2)cc1C,inactive: -3.54%
18,CCOC(=O)c1cccc(NC(=O)CCn2nc(C)c(S(=O)(=O)N3CCCCC3)c2C)c1,inactive: -20.8%
19,Cc1ccc(C)c(NC(=O)c2cc(S(=O)(=O)N3CCCCCC3)ccc2F)c1,inactive: 7.45%
20,CC1=C(C(=O)Nc2ccccc2)C(c2cccs2)n2nc(SCc3ccccc3F)nc2N1 (stereo not drawn),inactive: -0.881%
21,COc1cc2c(=O)n(CCC(=O)NCC3CCCO3)c(=O)n(CC(=O)Nc3ccc(C)c(C)c3)c2cc1OC (stereo not drawn),inactive: -0.682%
22,Cc1ccc(OCC(=O)N(Cc2ccco2)Cc2ccc(C)o2)cc1,inactive: -13.4%
23,COc1ccc(-c2cc(C(F)(F)F)n3nc(C(=O)Nc4ccccc4SC)cc3n2)cc1OC,inactive: 3.38%
24,CCC(C)NC(=O)c1nn(-c2ccc(C)cc2)c(=O)n(C)c1=O (stereo not drawn),inactive: 1.01%

row,SMILES,"activity change, negative = cytotoxicity"
1,COCCCNC(=O)C1CCN(c2nn3cc(-c4ccc(F)cc4)nc3s2)CC1,inactive: 5.95%
2,COc1cccc(CCNC(=O)c2c(O)nc3ccccn3c2=O)c1,inactive: 0.0232%
3,CC(C)c1cccc(OCCn2c(-c3ccc(Cl)cc3)nc3ccccc3c2=O)c1,inactive: 4.03%
4,CC1=C(C(=O)NCc2ccc(Cl)cc2)C2(CCCCC2)OC1=O,inactive: 3.18%
5,CCn1cc(S(=O)(=O)c2cccc(Cl)c2)c(=O)c2cc(F)c(N3CCN(c4ccccc4)CC3)cc21,inactive: 2.38%
6,Cc1ccc(C)n1-c1nnc(N2CCCC(C(=O)NCc3cccc(Cl)c3)C2)s1 (stereo not drawn),inactive: -7.09%
7,CCc1ccc(-n2c(Cc3ccccc3)nnc2SCc2nc(-c3cccs3)no2)cc1,inactive: -27.1%
8,COc1cc(OC)c(NC(=O)Cn2c(=O)oc3cc(S(=O)(=O)N4CCCC4)ccc32)cc1Cl,inactive: -1.7%
9,Cc1ccc(CN2C(=O)c3oc4ccc(C)cc4c(=O)c3C2c2ccc(O)cc2)cc1 (stereo not drawn),inactive: -9.19%
10,COc1ccc(NS(=O)(=O)c2ccc3[nH]c4c(c3c2)CCCC4)cc1Cl,inactive: -25.8%
11,CCCCCn1c(-c2ccc(OC)c(OC)c2)nc2ccccc21,inactive: -20.8%
12,Cc1ccc(Cl)cc1N1CCN(S(=O)(=O)c2ccc3c(c2)CCCN3C(=O)C2CCC2)CC1,inactive: 29.1%
13,O=C(NCCc1ccccc1)c1cc(Sc2cccc(Cl)c2)nc2ccccc12,inactive: -0.93%
14,CCOc1ccc(C(=O)NCCS(=O)(=O)N2CCN(c3ccccc3F)CC2)cc1OCC,inactive: 2.34%
15,O=C(Cn1ncc2c([nH]c3ccccc32)c1=O)NCC1CCN(Cc2ccc(F)cc2)CC1,inactive: 11.7%
16,CCOc1ccccc1CNC(=O)C1CCN(S(=O)(=O)c2ccc3c(ccn3C)c2)CC1,inactive: -17%
17,CCOC(=O)c1c(S(=O)(=O)NCC(=O)Nc2cc(C)ccc2C)c(C)n(C)c1C,inactive: 0.113%
18,CCc1nn(Cc2cc(C)ccc2C)c(=O)c2cc3cc(C)ccc3n12,inactive: -3.38%
19,Cc1ccc(NS(=O)(=O)c2ccc3c(c2)CCCN3C(=O)C2CCC2)c(C)c1,inactive: -17.4%
20,COc1ccc(Cl)cc1-n1nnc(-c2nsc(NC(=O)c3ccccc3Cl)n2)c1C,inactive: 17.5%
21,CCCSc1nc2sc3c(c2c(=O)n1Cc1ccccc1)CC(C)(CC)OC3 (stereo not drawn),inactive: 22.4%
22,COc1ccc(C2(CNC(=O)C(=O)Nc3ccc(F)cc3)CCCC2)cc1OC,inactive: -5.74%
23,CCc1ccccc1NC(=O)C(=O)NCC(c1cccnc1)N1CCN(c2ccccc2F)CC1 (stereo not drawn),inactive: -23.2%
24,Cc1ccc(-c2cn3c(n2)sc2cc(C(=O)NC(C)C45CC6CC(CC(C6)C4)C5)ccc23)cc1 (stereo not drawn),inactive: 1.38%

# Source: PubChem BioAssay AID1508642 (National Center for Advancing Translational Sciences (NCATS), 2021)
